Some of the results follow. Some results are limits rather than exact numbers.

B1: PhoQ; a variant is named by its letters at X, in order, P23837 (parent)
chain: MKKLLRLFFPLSLRVRFLLATAAVVLVLSLAYGMVALIGYSVSFDKTTFRLLRGESNLFYTLAKWENNKLHVELPENIDKQSPTMTLIYDENGQLLWAQRDVPWLMKMIQPDWLKSNGFHEIEADVNDTSLLLSGDHSIQQQLQEVREDDDDAEMTHSVAVNVYPATSRMPKLTIVVVDTIPVELKSSYMVWSWFIYVLSANLLLVIPLLWVAAWWSLRPIEALAKEVRELEEHNRELLNPATTRELTSLVRNLNRLLKSERERYDKYRTTLTDLTHSLKTPLXXLQXXLRSLRSEKMSVSDAEPVMLEQISRISQQIGYYLHRASMRGGTLLSRELHPVAPLLDNLTSALNKVYQRKGVNISLDISPEISFVGEQNDFVEVMGNVLDNACKYCLEFVEISARQTDEHLYIVVEDDGPGIPLSKREVIFDRGQRVDTLRPGQGVGLAVAREITEQYEGKIVAGESMLGGARMEVIFGRQHSAPKDE

In this experiment the parent is B1. Briefly: enrichment ratio after two sorts for PhoP signalling (ratio (wild type AVST 3.29)); higher = more functional. Particulars: with PhoP (E. coli).
With PVAM, the enrichment ratio was no more than 0.25.

As for NRCE, the enrichment ratio was no more than 0.25.

For QGFK, the enrichment ratio was no more than 0.25.

As for TVRN, the enrichment ratio was no more than 0.25.

As to LIFD, the enrichment ratio is no more than 0.25.

With HQEN, the enrichment ratio is no more than 0.25.

On to WILR, for which the enrichment ratio was no more than 0.25.

Take PCVN: the enrichment ratio is no more than 0.25.

For the variant TPFC, the enrichment ratio is no more than 0.25.

Turning to CYLT, the enrichment ratio was no more than 0.25.

As to WQGT, the enrichment ratio is no more than 0.25.

As to FHAE, the enrichment ratio is no more than 0.25.

With QFAV, the enrichment ratio is no more than 0.25.

For the variant WDWA, the enrichment ratio was no more than 0.25.

On to DMCI, for which the enrichment ratio is 1.54.

For FYGE, the enrichment ratio was no more than 0.25.

Turning to KGYA, the enrichment ratio is no more than 0.25.

With SAYC, the enrichment ratio was no more than 0.25.

In the case of MSFQ, the enrichment ratio came to 7.78.

For HRRL, the enrichment ratio was no more than 0.25.

For RGNC, the enrichment ratio is no more than 0.25.

For the variant YEYF, the enrichment ratio came to 0.947.

Turning to QCFV, the enrichment ratio is no more than 0.25.

TPEK: the enrichment ratio was no more than 0.25.

Take LWTW: the enrichment ratio was no more than 0.25.

With RCDN, the enrichment ratio was no more than 0.25.

As to HHQI, the enrichment ratio was no more than 0.25.

With LNRV, the enrichment ratio was no more than 0.25.

PIPR: the enrichment ratio was no more than 0.25.

For MAWQ, the enrichment ratio is no more than 0.25.

For FYLA, the enrichment ratio was no more than 0.25.

For KIDN, the enrichment ratio is no more than 0.25.

On to NITW, for which the enrichment ratio was no more than 0.25.

Consider WRTV, for which the enrichment ratio was no more than 0.25.

As for AMGQ, the enrichment ratio worked out at 13.7.

In the case of HEGI, the enrichment ratio was no more than 0.25.

As to NNYR, the enrichment ratio is no more than 0.25.

Turning to ARQK, the enrichment ratio was no more than 0.25.

As to PCYQ, the enrichment ratio is no more than 0.25.

As to DRYR, the enrichment ratio was no more than 0.25.

TQVM: the enrichment ratio is 1.97.

For the variant INSL, the enrichment ratio was 0.38.

For the variant NNRW, the enrichment ratio was no more than 0.25.

Consider DYCN, for which the enrichment ratio is no more than 0.25.

As to NQAF, the enrichment ratio is no more than 0.25.

As for VNHL, the enrichment ratio is no more than 0.25.

Consider HGNV, for which the enrichment ratio was no more than 0.25.

In the case of SYRW, the enrichment ratio is no more than 0.25.

For the variant KFRW, the enrichment ratio is no more than 0.25.

For the variant YIRI, the enrichment ratio was no more than 0.25.

Consider IEHD, for which the enrichment ratio is no more than 0.25.

For the variant LLCF, the enrichment ratio was no more than 0.25.

Consider GHHI, for which the enrichment ratio is no more than 0.25.

In the case of HFTM, the enrichment ratio was no more than 0.25.

On to MLRL, for which the enrichment ratio was no more than 0.25.

Turning to KPYV, the enrichment ratio is no more than 0.25.

As for DMKN, the enrichment ratio was no more than 0.25.

Take RDLW: the enrichment ratio was no more than 0.25.

Regarding EQIK, the enrichment ratio is no more than 0.25.

Turning to NGFF, the enrichment ratio is no more than 0.25.

On to IPGM, for which the enrichment ratio was no more than 0.25.

As for MYEH, the enrichment ratio is no more than 0.25.

As for RAPA, the enrichment ratio is no more than 0.25.

VEPR: the enrichment ratio was no more than 0.25.

GRFM: the enrichment ratio is no more than 0.25.

Regarding QAPQ, the enrichment ratio was no more than 0.25.

Consider TQLL, for which the enrichment ratio stood at 18.9.

As for YIFW, the enrichment ratio was no more than 0.25.

Regarding TNFN, the enrichment ratio was no more than 0.25.

For WRCF, the enrichment ratio is no more than 0.25.

Turning to ILAA, the enrichment ratio is no more than 0.25.

MPYD: the enrichment ratio is no more than 0.25.

With LMES, the enrichment ratio was no more than 0.25.

For the variant IGNF, the enrichment ratio is no more than 0.25.

As for TIYV, the enrichment ratio was determined as 16.6.

On to NCLM, for which the enrichment ratio came out at 0.542.

As for HWEF, the enrichment ratio was no more than 0.25.

For EWLP, the enrichment ratio was no more than 0.25.

With NQNK, the enrichment ratio was no more than 0.25.

Consider FNMA, for which the enrichment ratio is no more than 0.25.

Take DGRF: the enrichment ratio is no more than 0.25.

Take TSWI: the enrichment ratio is 3.63.

For the variant RPSD, the enrichment ratio is no more than 0.25.

MMAN: the enrichment ratio is 3.04.

EQVF: the enrichment ratio is no more than 0.25.

Turning to ICEM, the enrichment ratio was no more than 0.25.

In the case of IAGD, the enrichment ratio is no more than 0.25.

For the variant NQQV, the enrichment ratio was no more than 0.25.

As for DDIW, the enrichment ratio was no more than 0.25.

VPRE: the enrichment ratio is no more than 0.25.

In the case of VCTR, the enrichment ratio is no more than 0.25.

On to QMNV, for which the enrichment ratio was no more than 0.25.

As to RSVP, the enrichment ratio is no more than 0.25.

For the variant YKIR, the enrichment ratio is no more than 0.25.

With MGPQ, the enrichment ratio is no more than 0.25.

For IPAC, the enrichment ratio was no more than 0.25.

With SSSK, the enrichment ratio was no more than 0.25.

Consider WMMK, for which the enrichment ratio was no more than 0.25.

With MAPV, the enrichment ratio was no more than 0.25.

Turning to YDPG, the enrichment ratio was no more than 0.25.

With KFQT, the enrichment ratio is no more than 0.25.

MNNW: the enrichment ratio is no more than 0.25.

Consider MCMS, for which the enrichment ratio is no more than 0.25.

As to SEWL, the enrichment ratio came out at 3.45.

With LRPA, the enrichment ratio was no more than 0.25.

For DNEY, the enrichment ratio is no more than 0.25.

Take QPMG: the enrichment ratio was no more than 0.25.

Take RARA: the enrichment ratio was no more than 0.25.

For ALTV, the enrichment ratio came to 5.78.

Consider TSID, for which the enrichment ratio is no more than 0.25.

On to PNRC, for which the enrichment ratio is no more than 0.25.

On to QWLL, for which the enrichment ratio is no more than 0.25.

With LRKI, the enrichment ratio is no more than 0.25.

With YRFM, the enrichment ratio was no more than 0.25.

Regarding FRVN, the enrichment ratio is no more than 0.25.

On to ASSQ, for which the enrichment ratio turned out to be 14.5.

Turning to GDRV, the enrichment ratio was no more than 0.25.

On to ETLH, for which the enrichment ratio is no more than 0.25.

Turning to ANWL, the enrichment ratio is no more than 0.25.

Take AHQC: the enrichment ratio is no more than 0.25.

As to KACY, the enrichment ratio was no more than 0.25.

On to YNMI, for which the enrichment ratio is 0.268.

For GYKV, the enrichment ratio was no more than 0.25.

In the case of VHYQ, the enrichment ratio was no more than 0.25.

Turning to RVFN, the enrichment ratio was no more than 0.25.

In the case of HYED, the enrichment ratio is no more than 0.25.

Regarding TMPT, the enrichment ratio is no more than 0.25.

Consider RVKV, for which the enrichment ratio was no more than 0.25.

On to PCDK, for which the enrichment ratio is no more than 0.25.

Turning to MPDA, the enrichment ratio is no more than 0.25.

KMRT: the enrichment ratio was no more than 0.25.

As for FPHI, the enrichment ratio is no more than 0.25.

With HCQP, the enrichment ratio is no more than 0.25.

Turning to KMDT, the enrichment ratio was no more than 0.25.

ARNQ: the enrichment ratio was no more than 0.25.

On to EDVW, for which the enrichment ratio was no more than 0.25.

As to PNLD, the enrichment ratio is no more than 0.25.

Consider AWIS, for which the enrichment ratio is no more than 0.25.

Turning to QIWP, the enrichment ratio was no more than 0.25.

Consider CLGP, for which the enrichment ratio was no more than 0.25.

With TMFG, the enrichment ratio came out at 1.38.

As to WSKI, the enrichment ratio is no more than 0.25.

As for LWVP, the enrichment ratio was no more than 0.25.

As for NVYF, the enrichment ratio is no more than 0.25.

In the case of RYEA, the enrichment ratio is no more than 0.25.

With RPVV, the enrichment ratio is no more than 0.25.

As to HPWL, the enrichment ratio is no more than 0.25.

As to LIQW, the enrichment ratio is no more than 0.25.

As for MFMM, the enrichment ratio is no more than 0.25.

Take VAHV: the enrichment ratio is no more than 0.25.

As to EHYQ, the enrichment ratio was no more than 0.25.

As to AMLW, the enrichment ratio was no more than 0.25.

Regarding WLFK, the enrichment ratio is no more than 0.25.

On to WQTK, for which the enrichment ratio was no more than 0.25.

As to AIME, the enrichment ratio is 1.65.

Turning to HYYP, the enrichment ratio is no more than 0.25.

GNSP: the enrichment ratio is no more than 0.25.

FSPY: the enrichment ratio is no more than 0.25.

With LWSK, the enrichment ratio was no more than 0.25.

On to VRRD, for which the enrichment ratio was no more than 0.25.

As to QQGS, the enrichment ratio worked out at 6.17.

For the variant YETK, the enrichment ratio is no more than 0.25.

Regarding HFQD, the enrichment ratio is no more than 0.25.

In the case of IYLH, the enrichment ratio was no more than 0.25.

As for WNKH, the enrichment ratio was no more than 0.25.

For the variant WFFI, the enrichment ratio is no more than 0.25.

On to WMPA, for which the enrichment ratio was no more than 0.25.

Take QAIK: the enrichment ratio was no more than 0.25.

NQMT: the enrichment ratio was no more than 0.25.

On to QRTM, for which the enrichment ratio was no more than 0.25.

For EQQR, the enrichment ratio was no more than 0.25.

For QRLG, the enrichment ratio is no more than 0.25.

Turning to SAWL, the enrichment ratio stood at 2.19.

Regarding IRKC, the enrichment ratio was no more than 0.25.

With SIRM, the enrichment ratio is no more than 0.25.

For KMSM, the enrichment ratio is no more than 0.25.

For the variant PVGF, the enrichment ratio is no more than 0.25.

Regarding DAFL, the enrichment ratio is no more than 0.25.

Take IWFT: the enrichment ratio is no more than 0.25.

As to FYGT, the enrichment ratio was no more than 0.25.

Turning to FYNA, the enrichment ratio is no more than 0.25.

On to MQPK, for which the enrichment ratio was no more than 0.25.

With NEYD, the enrichment ratio was no more than 0.25.

Regarding RESW, the enrichment ratio was no more than 0.25.

Turning to AHQP, the enrichment ratio was no more than 0.25.

With EVSC, the enrichment ratio is no more than 0.25.

Regarding NFVS, the enrichment ratio is no more than 0.25.

As for YAFC, the enrichment ratio is no more than 0.25.

For PMFD, the enrichment ratio is no more than 0.25.

MTVD: the enrichment ratio was no more than 0.25.

Turning to PYDS, the enrichment ratio is no more than 0.25.

In the case of HTDM, the enrichment ratio is no more than 0.25.

With AFKF, the enrichment ratio is no more than 0.25.

On to MTIQ, for which the enrichment ratio was no more than 0.25.

Take EYYQ: the enrichment ratio was no more than 0.25.
